{"source": "the supplement of paper PMC7826260", "note": "This is one part of the list. Cleavage of a single-stranded DNA pool by Rep nickase domains was read by sequencing (3 µM enzyme, 1 h, 37 °C); shown is the middle of each 90-letter strand. A value is the log2 ratio of uncut reads to the pool without enzyme; uncut sequences lie near 0, cut ones below; no hit call is given. Shares of all reads are compared; uncut strands gain when others are lost, and binding without cutting may add a little.", "data": [{"system": "T1, Rep nickase domain of wheat dwarf virus", "T1 sequence (residues 1-137, tag not shown)": "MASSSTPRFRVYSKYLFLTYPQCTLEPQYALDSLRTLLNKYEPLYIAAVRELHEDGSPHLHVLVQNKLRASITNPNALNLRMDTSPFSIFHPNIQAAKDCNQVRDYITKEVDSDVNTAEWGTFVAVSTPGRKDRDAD", "test": "uncleaved DNA left, log2 of reads against the no-enzyme library (log2 ratio); higher = less cleavage (more negative = more Rep cleavage of the k-mer); sequences stand for … in CTCGTCCG…ACCGGAGA", "description": "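A pool of 90-nt single-stranded DNAs with seven random bases just before the constant AC of the nick site (name = the seven bases) was cut by 3 µM recombinant His6-SUMO-tagged Rep nickase domain (300 nM DNA, 50 mM HEPES pH 8.0, 50 mM NaCl, 1 mM MnCl2, 1 h, 37 °C, three replicates). Uncut DNA was amplified and sequenced.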", "values": [{"sequence": "ATACGCG", "uncleaved DNA left (log2)": -0.0817}, {"sequence": "TCGACTG", "uncleaved DNA left (log2)": 0.27}, {"sequence": "TAAGACA", "uncleaved DNA left (log2)": -0.144}, {"sequence": "GTCTCGC", "uncleaved DNA left (log2)": 0.154}, {"sequence": "CGGGTAA", "uncleaved DNA left (log2)": -0.023}, {"sequence": "CTGGCAT", "uncleaved DNA left (log2)": 0.0953}, {"sequence": "CATTATG", "uncleaved DNA left (log2)": 0.0388}, {"sequence": "GGGCTAG", "uncleaved DNA left (log2)": 0.222}, {"sequence": "ATGTAAA", "uncleaved DNA left (log2)": 0.101}, {"sequence": "GTGGTCC", "uncleaved DNA left (log2)": -0.0527}, {"sequence": "TAAGACT", "uncleaved DNA left (log2)": -0.26}, {"sequence": "GTGCGTG", "uncleaved DNA left (log2)": -0.0718}, {"sequence": "CTGAACG", "uncleaved DNA left (log2)": 0.142}, {"sequence": "AACTCGC", "uncleaved DNA left (log2)": -0.0513}, {"sequence": "TAGGAGT", "uncleaved DNA left (log2)": -0.0479}, {"sequence": "CAAGTCT", "uncleaved DNA left (log2)": -0.358}, {"sequence": "TGTGCCT", "uncleaved DNA left (log2)": 0.0157}, {"sequence": "TCGTCCC", "uncleaved DNA left (log2)": -0.00169}, {"sequence": "CTCCTGC", "uncleaved DNA left (log2)": 0.0204}, {"sequence": "CACGATC", "uncleaved DNA left (log2)": -0.034}, {"sequence": "ATGGGAC", "uncleaved DNA left (log2)": 0.267}, {"sequence": "ATGCTGC", "uncleaved DNA left (log2)": -0.0554}, {"sequence": "AGACTAT", "uncleaved DNA left (log2)": 0.16}, {"sequence": "TCGGCGA", "uncleaved DNA left (log2)": -0.281}, {"sequence": "TATTGAC", "uncleaved DNA left (log2)": 0.0299}, {"sequence": "CCCTCAC", "uncleaved DNA left (log2)": 0.0795}, {"sequence": "CGTTGGT", "uncleaved DNA left (log2)": 0.0482}, {"sequence": "ATCCCGA", "uncleaved DNA left (log2)": -0.0474}, {"sequence": "TGACATG", "uncleaved DNA left (log2)": 0.0187}, {"sequence": "CAATTGT", "uncleaved DNA left (log2)": -3.24}, {"sequence": "TACTCCG", "uncleaved DNA left (log2)": -0.192}, {"sequence": "GTGAGCA", "uncleaved DNA left (log2)": 0.229}, {"sequence": "GGAGTCT", "uncleaved DNA left (log2)": 0.149}, {"sequence": "GCAGAGG", "uncleaved DNA left (log2)": 0.041}, {"sequence": "CGGACGT", "uncleaved DNA left (log2)": 0.0503}, {"sequence": "CACTCCA", "uncleaved DNA left (log2)": -0.108}, {"sequence": "TGACCCC", "uncleaved DNA left (log2)": 0.173}, {"sequence": "TATACAC", "uncleaved DNA left (log2)": 0.101}, {"sequence": "GTTCACA", "uncleaved DNA left (log2)": 0.0792}]}]}
